From article PMC4336329 (PLoS ONE, 2015)
Hit rate of the full screen: of about 310,000 compounds, about 2,200 (0.71%) showed an effect of 50% or more. Effects have a minus sign here. This is one part of the list.

The molecules below were run against human ether-à-go-go-related gene (hERG) potassium channel (human, UniProt Q12809) (assay: primary screen, population patch clamp on CHO cells stably expressing hERG).
human ether-à-go-go-related gene (hERG) potassium channel, sequence (Q12809 whole entry, looked up): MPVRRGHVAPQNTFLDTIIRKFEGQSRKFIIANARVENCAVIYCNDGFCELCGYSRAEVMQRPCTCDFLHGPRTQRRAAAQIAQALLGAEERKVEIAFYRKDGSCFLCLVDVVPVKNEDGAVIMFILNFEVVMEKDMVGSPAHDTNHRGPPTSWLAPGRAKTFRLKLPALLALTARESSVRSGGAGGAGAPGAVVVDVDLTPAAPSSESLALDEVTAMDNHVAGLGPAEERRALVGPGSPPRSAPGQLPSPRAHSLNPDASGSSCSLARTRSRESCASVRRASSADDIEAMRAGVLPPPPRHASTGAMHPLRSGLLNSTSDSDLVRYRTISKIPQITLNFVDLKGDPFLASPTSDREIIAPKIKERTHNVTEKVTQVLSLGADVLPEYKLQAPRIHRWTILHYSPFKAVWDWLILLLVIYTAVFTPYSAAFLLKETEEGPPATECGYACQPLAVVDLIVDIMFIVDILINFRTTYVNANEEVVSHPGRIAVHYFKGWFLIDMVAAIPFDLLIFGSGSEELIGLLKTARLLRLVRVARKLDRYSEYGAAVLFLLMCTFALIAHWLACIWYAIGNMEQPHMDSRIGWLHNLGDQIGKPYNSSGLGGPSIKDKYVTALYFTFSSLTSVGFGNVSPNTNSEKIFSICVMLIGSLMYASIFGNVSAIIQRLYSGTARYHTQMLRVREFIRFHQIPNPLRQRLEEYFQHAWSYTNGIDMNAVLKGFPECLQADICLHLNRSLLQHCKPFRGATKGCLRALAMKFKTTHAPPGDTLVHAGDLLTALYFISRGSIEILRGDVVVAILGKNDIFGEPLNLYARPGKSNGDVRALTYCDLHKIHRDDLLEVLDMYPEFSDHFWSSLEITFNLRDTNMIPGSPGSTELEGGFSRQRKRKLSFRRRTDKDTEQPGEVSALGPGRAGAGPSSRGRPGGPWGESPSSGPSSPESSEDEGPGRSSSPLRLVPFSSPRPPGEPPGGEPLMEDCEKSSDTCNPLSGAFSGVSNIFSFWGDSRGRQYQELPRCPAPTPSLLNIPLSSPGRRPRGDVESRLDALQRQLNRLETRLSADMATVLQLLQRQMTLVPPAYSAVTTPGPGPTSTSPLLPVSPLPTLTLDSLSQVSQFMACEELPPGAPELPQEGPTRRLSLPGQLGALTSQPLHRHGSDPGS

Compound | hERG current change (%, negative = inhibition) at 1uM
C/C(Cn1nnc2ccccc21)=N\OC(=O)c1cc(F)c(F)cc1Cl | -48.4%
Cc1ccc(NC(=O)c2cc(C)nc3ccccc23)cc1 | 13%
CCCCN(CC)Cc1c(O)ccc2c3c(c(=O)oc12)CCC3 | 12.7%
N#Cc1c(Cl)c(Cl)c2nnc(-c3ccc(Br)cc3)n2c1Cl | -7.42%
O=C1CN(C(=O)c2ccc(Br)o2)C(c2ccccc2)c2cc(F)ccc2N1 (stereo not shown) | -2.93%
O=C1OCc2cc(-n3cccc3)ccc21 | 2.04%
Nc1nncn1C(=O)CCCOc1ccccc1 | 13.7%
O=c1[nH]c(=O)n(Cc2ccccc2)c(O)c1C=Nc1ccc(CN2CCOCC2)cc1 | 8.48%
CC/C(=N\O)c1ccc(OC)c(OC)c1 | 17.6%
Cc1ccc(-c2nc(NCCN(C)C)c3ccccc3n2)cc1 | -1.07%
O=C(NCCCn1ccnc1)c1nc(Cn2ccc([N+](=O)[O-])n2)no1 | 16%
Fc1ccc(COc2ccc3ccccc3c2CNc2nn[nH]n2)cc1 | 11%
O=C(CC1SC(=NCC2CCCO2)NC1=O)Nc1cccc2ccccc12 (stereo not shown) | -7.94%
CCOC(=O)NC(NC(=O)OCC)C(=O)c1ccccc1 | 0.77%
CCOc1ccc(S(=O)(=O)c2c[nH]c3ccc(C)cc3c2=O)cc1 | 17%
CCOC(=O)CCSc1nc(N2CCOCC2)c2c(c1C#N)CC(C)(C)OC2 | -14.1%
CC(C)(C)n1nnnc1C(c1ccc(C(F)(F)F)cc1)N(Cc1ccc(F)cc1)Cc1ccco1 (stereo not shown) | 11.7%
CC(NC(=O)COc1ccc(-c2nnco2)cc1)c1ccc(Cl)cc1Cl (stereo not shown) | 3.25%
COc1ccccc1CNC(=O)COc1cccc(-n2cnnn2)c1 | 7.09%
COc1cc(C(=O)NCCC(C)C)ccc1OCc1ccc(Cl)cc1Cl | 7.87%
CCCCCCn1c(N2CCC(C)CC2)nc2c1c(=O)[nH]c(=O)n2C | 0.341%
Cc1ccc(N/C=C/C(=O)C(C)(C)C)c(O)c1 | 2.33%
O=C(Cc1cccs1)N1CCN(c2ccc([N+](=O)[O-])cc2)CC1 | -33%

Compound | hERG current change (%, negative = inhibition) at 1uM
COc1ccc(CNC(=O)C2CCN(S(=O)(=O)N3CCC4(CC3)OCCO4)CC2)c(OC)c1 | 12%
CC(Cc1nnc(SCC(=O)O)n1N)c1ccccc1 (stereo not shown) | 13.9%
O=C(c1ccccc1)c1ccc(OC(=O)C2CCCCC2)cc1 | 14%
COc1ccccc1NC(=S)NCCc1ccc(Cl)cc1 | 13.5%
COc1cc(OC)cc(C(=O)NC2CCN(CCCOc3ccccc3)CC2)c1 | -41.2%
CC1=C(C(=O)Nc2ccccc2)C(c2ccncc2)C(C#N)=C(SCC(=O)Nc2ccccc2)N1 (stereo not shown) | 3.98%
CC1(C)CN=C(NCc2ccccc2)S1 | 11.7%
CCCCn1c(C(C)NC(=O)CCC)nc2ccccc21 (stereo not shown) | 14.3%
O=C(CCS(=O)(=O)c1ccccc1)Nc1nc2cc3c(cc2s1)OCCO3 | 7.21%
O=C(Nc1nnc(-c2ccc(Cl)cc2)o1)Nc1ccccc1Cl | 10.1%
Cc1ccc(S(=O)(=O)N[C@H](C(=O)N2CCC(C(=O)NCC(=O)O)CC2)C(C)C)cc1 | 17.5%
Cc1cccc(Oc2ccc(Cl)cc2N)c1 | 16.8%
CC(C)Cn1c(N)c(C(=O)CSc2nccn2C)c(=O)n(C)c1=O | 8.51%
CCOC(=O)c1cc2c(ccn2C)n1CC(=O)N(Cc1ccccc1)c1ccc(F)cc1 | 5.88%
Cc1cc(OCCOCCN2CCCC2)ccc1C(C)C | -22.6%
CS(=O)(=O)N1CCC(C(=O)Nc2cccc(Cl)c2Cl)CC1 | 13.7%
CCCCCNC(=O)c1ccc2c(=O)n(CCCOCC)c(=S)[nH]c2c1 | 7.15%
CN(C)c1ccc(/C=N/NC(=O)c2ccco2)cc1 | 13.9%
COc1ccccc1CC(=O)Nc1cccc(C)n1 | 14.5%
C/C(CCc1ccc2c(c1)OCO2)=N\N=C1\NC(=O)CC(C(=O)Nc2ccc(Cl)cc2)S1 (stereo not shown) | 2.56%
Cc1ccc(N=C2C(=O)Nc3c(C)cccc32)cc1 | 6.74%
C/C(=N\NC(=S)NC(C)C)c1ccc(Cl)c([N+](=O)[O-])c1 | 11%
COc1cccc(-c2nc(N3CCN(C)CC3)c3ccccc3n2)c1O | 10.6%

Compound | hERG current change (%, negative = inhibition) at 1uM
CCOCCN1CCN(C(=O)CN2CCCC2=O)CC1.O=C(O)/C=C\C(=O)O | 5.33%
Cc1ccccc1-c1nnc(SCCOc2ccc3c(C)cc(=O)oc3c2)o1 | 21.9%
CN(C)C(=O)COc1ccc(Oc2ccccc2)cc1 | 1.77%
COCCNC(=O)CN(Cc1ccc(F)cc1)C(=O)CCC(=O)Nc1nccs1 | -0.953%
CCN(CC(=O)NCc1ccc(F)cc1)C(=O)/C=C/c1ccco1 | -4.75%
Cc1ccccc1CNC(=O)Cc1cccs1 | 4.63%
CCc1ccc(C2NC(c3ccc(CC)cc3)C([N+](=O)[O-])C(C)(C)C2[N+](=O)[O-])cc1 (stereo not shown) | 4.8%
Nc1ccccc1C(=O)c1ccccc1 | 5.55%
CCc1ccccc1NC(=O)[C@@H]1CCC(=O)N1C1OC(=O)c2ccccc21 (stereo partly shown) | 15.5%
CC(=O)N1CCc2ccccc2C1CC(=O)O (stereo not shown) | 6.78%
CC(=O)N1CCN(C(=O)c2ccc(NS(=O)(=O)c3ccc4[nH]c(=O)[nH]c4c3)cc2)CC1 | 9.21%
Cc1ccc(CNc2nc(N)c([N+](=O)[O-])c(Nc3ccc(F)cc3)n2)cc1 | -2.55%
COc1cccc(/C=N/NC(=O)Cn2nc([N+](=O)[O-])cc2C)c1 | 9.59%
O=C(c1cc(-c2ccco2)on1)N1CCOCC1 | 6.35%
CC(=O)Nc1ccc2nc(NC(=O)COc3ccc(C)cc3)sc2c1 | 5.97%
O=C(O)CCN1C(=O)CC2(CCCCC2)C1=O | 12.9%
O=C(CCNS(=O)(=O)c1cccc2nonc12)NC1CCCCC1 | 12.4%
Fc1ccc(-n2nnc(-c3cccnc3Cl)n2)cc1 | 18.5%
CCOc1ccccc1NC(=O)CN(C)S(=O)(=O)c1cccc2nsnc12 | 4.06%
Cc1ccc(S(=O)(=O)N2CCC(C(=O)NCCCN3CCOCC3)CC2)cc1C | 7.71%
CCOc1ccccc1C(=O)Nc1nccs1 | 5.69%
O/C(=C\c1ccc2ccccc2n1)c1ccc(O)cc1O | 1.97%
O=C(CSCC(=O)N1CCCCC1)Nc1nc(-c2cccs2)cs1 | 5.94%

Compound | hERG current change (%, negative = inhibition) at 1uM
O=S(=O)(c1ccccc1)c1nc(-c2cccs2)oc1NCc1cccnc1 | 3.56%
CCOC(=O)C1CCN(C(=O)CN(c2cc(OC)ccc2OC)S(=O)(=O)c2ccccc2)CC1 | 10.9%
COc1ccc(-n2nc(C(=O)NCC(=O)N3CC(C)CC(C)C3)c3ccccc3c2=O)cc1OC (stereo not shown) | 6.93%
CSc1ccccc1C(=O)N(CC1CCCO1)c1c(N)n(Cc2ccccc2)c(=O)[nH]c1=O (stereo not shown) | 2.31%
Cc1c(C(=O)N2CCOCC2)oc2c1C(=O)CC(C)(C)C2 | -5.92%
O=C(c1csc2c1CCCC2)N1CCN(c2ncccn2)CC1 | 1.96%
CCC/C=C(\CCC)C(NC(=O)c1ccc(C(=O)OC)cc1)c1ccc(C(=O)OC)cc1 (stereo not shown) | 12.2%
O=C(NC1CCCC1)C(c1ccccc1)N(Cc1ccc2c(c1)OCO2)C(=O)Cc1cccs1 (stereo not shown) | 10.2%
O=C(CSc1ncnc2ccccc12)NCCc1ccccc1 | 3.1%
Fc1cccc(Nc2nc(-c3ccncc3)nc3ccccc23)c1 | 17.8%
Cc1ccc(NC(=O)c2sc(=S)n(-c3cc(C)ccc3F)c2N)cc1 | 6.25%
O=C(O)CCCN1C(=O)c2cccc3cccc(c23)C1=O | 6.67%
CCOc1ccccc1NC(=S)N(CCOC)C1CCN(C(C)=O)CC1 | 2.85%
CC(Oc1ccc(Br)cc1)C(=O)Nc1nc(-c2ccccn2)cs1 (stereo not shown) | 12.9%
O=c1[nH]cnc2sc3c(c12)CN(Cc1ccccc1)CC3 | 9.54%
CCN(c1ccc(NC(=O)c2ccc(Cl)nc2)cc1)C(C)C | 12.2%
CCN(CC)S(=O)(=O)c1cccc(C(=O)OCC(=O)NCCN2C(=O)CSC2=O)c1 | 3.42%
COc1ccc(C2(O)CCN(C(=O)NC3CCCCC3)CC2)cc1 | 12.2%
O=C(C1=C(Nc2ccccc2)c2ccccc2S(=O)(=O)N1)c1ccccc1 | 12.9%
CN(C)S(=O)(=O)c1cc(NC(=O)COC(=O)Cc2ccc(Br)cc2)ccc1Cl | 7.98%
Cn1c(Cn2nnc3ccccc32)nnc1SCC(=O)Nc1ccc2c(c1)OCO2 | 8.02%
CN(CC(=O)NC1CCN(Cc2ccccc2)CC1)S(=O)(=O)c1ccc2c(c1)c(=O)n(C)c(=O)n2C | 7.41%
